Sequences with one replicate were seen in a single cluster, so their values are uncertain.
Test system: ATP
Experiment: switch fluorescence ratio, 500 uM ATP over buffer (Cy3 cluster intensity, sum of 5 cycles each) (fold (ratio)); higher = stronger signal-on switching upon ATP binding; sequences stand for … in TCGTCGGCAGCGTCAGATGTGTATAAGAGACAGTTTTTTTTTTTTTTTTTTTTTTTTT…TC
Conditions: aptamer strand: ATP DNA aptamer (quencher-CACCTGGGGGAGTATTGCGGAGGAAGG + anchor), 100 nM annealed; ATP concentration: 500 uM; one replicate
In short: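 Clusters carrying Cy3-labelled switching strands on a modified Illumina MiSeq flow-cell were annealed to 100 nM quencher-labelled ATP aptamer and imaged in selection buffer. They were imaged again after 15 min with 500 uM ATP at 22 °C, over five buffer/ATP cycles with NaOH stripping and re-annealing in between. For each cluster, the fluorescence ratio is the summed Cy3 intensity of the target cycles divided by that of the buffer cycles, averaged per switch-domain sequence. Clusters outside 100-1000 RFU were left out.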
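Also: ATP exposure 15 min at 22 °C before imaging.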

Sequence | switch fluorescence ratio
GGGTTGAGAC | 1.05
GGGTTGCGAA | 0.984
GGGTTGCTA | 1.04
GGGTTGGTGA | 0.946
GGGTTGTCAT | 0.984
GGGTTGTTAT | 1.01
GGGTTTAGTT | 1.02
GGGTTTCCT | 1.04
GGGTTTGCAG | 1.05
GGGTTTGGCC | 0.981
GGGTTTGTT | 0.964
GGGTTTTCAC | 0.957
GGTAAACATT | 1.05
GGTAAATAGT | 0.985
GGTAACGTC | 1.01
GGTAACTCAT | 0.958
GGTAAGAGGA | 0.972
GGTAAGCCA | 0.963
GGTAAGGCGG | 0.965
GGTAAGTCCG | 1.01
GGTACAAAGG | 0.996
GGTACAAGGT | 0.988
GGTACAGAAG | 1.03
GGTACAGTCG | 1.05
GGTACCCGTC | 0.976
GGTACCTAGT | 1.02

Sequence | switch fluorescence ratio
GGTACTCAAG | 1.05
GGTACTTTGC | 0.991
GGTAGACTTA | 1.01
GGTAGCAGGA | 1.02
GGTAGCCCCG | 1.01
GGTAGCTTTC | 1.12
GGTAGGAAGG | 1.05
GGTAGGGCCG | 1.32
GGTATAAACA | 1.01
GGTATAGAAC | 1
GGTATCGCG | 1.03
GGTATGGAAG | 0.99
GGTATTGACT | 1.02
GGTATTTAAT | 1.03
GGTCAAGAAG | 0.955
GGTCAATTTC | 1.05
GGTCACAGTT | 0.956
GGTCAGGGCG | 1.04
GGTCATGAAA | 0.997
GGTCATGGGT | 1
GGTCCAAGGT | 0.993
GGTCCAGGCA | 0.992
GGTCCGGACG | 0.965
GGTCCGGCCG | 0.993
GGTCCTCGGT | 0.988
GGTCGATGCT | 1.01

Sequence | switch fluorescence ratio
GGTCGCTCGT | 0.977
GGTCGGCCCA | 1.01
GGTCGGGTCA | 1.01
GGTCGGTCTC | 0.997
GGTCTACGG | 1
GGTCTGAGGA | 1.01
GGTCTTAATC | 0.98
GGTCTTGGA | 0.992
GGTGAATCG | 1.01
GGTGACGAGG | 1.04
GGTGAGAAA | 2.33
GGTGAGCCCT | 0.993
GGTGAGTACC | 0.995
GGTGATAAGT | 0.951
GGTGATCAGG | 0.959
GGTGATCGTC | 1.03
GGTGATGGCC | 0.979
GGTGATTCCC | 0.984
GGTGATTGT | 1.03
GGTGCAATAA | 3.71
GGTGCATGAA | 0.987
GGTGCCACG | 0.994
GGTGCCAT | 1.02
GGTGCGGGGC | 0.956
GGTGCGTCGT | 0.945
